# This is one part of the list. The energies were worked out here from pooled read counts, against the library average; single values are noisy.
# Biological target: T1, Pho4 (S. cerevisiae) (UniProt P07270)
# T1 sequence: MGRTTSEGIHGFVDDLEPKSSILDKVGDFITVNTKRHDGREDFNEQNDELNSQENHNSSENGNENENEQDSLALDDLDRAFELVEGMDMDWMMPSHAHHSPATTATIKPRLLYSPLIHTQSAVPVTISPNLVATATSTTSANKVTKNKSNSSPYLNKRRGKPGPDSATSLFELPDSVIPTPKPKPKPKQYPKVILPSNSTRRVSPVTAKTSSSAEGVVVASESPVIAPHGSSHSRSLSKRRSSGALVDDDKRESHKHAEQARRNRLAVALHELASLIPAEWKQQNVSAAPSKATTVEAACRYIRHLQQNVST
# Assay: relative binding free energy (BET-seq); higher = weaker binding
# Details: reference: library average
row,Sequence,relative binding free energy [kcal/mol]
1,GGTGGCACGTGTCAAG,-0.12
2,GAGATCACGTGCTGGG,0.24
3,TGGCGCACGTGGCGGG,-0.18
4,AGCCTCACGTGTTGGG,0.16
5,GGACGCACGTGTTTTT,-0.02
6,TGAGCCACGTGTGGGG,0.06
7,ATAAACACGTGTTGTT,-0.1
8,AAAGTCACGTGTGTTG,0.17
9,GTGAACACGTGGGTGT,-0.07
10,TTGTCCACGTGGAGTT,0.06
11,AAATGCACGTGGGGAG,-0.15
12,TAGTTCACGTGAGAGT,0.55
13,ACGTGCACGTGGGATG,-0.13
14,TGTTTCACGTGTACGA,0.25
15,ATTTTCACGTGTCTTA,0.27
16,GGGTTCACGTGACAAG,0.49
17,TTGTACACGTGGGCCT,-0.04
18,CTGCTCACGTGGTTGG,0.13
19,GTATTCACGTGTTCGG,0.27
20,GGATGCACGTGGTATA,-0.03
21,GTGTTCACGTGGTCTC,0.21
22,ATTTGCACGTGAGGTG,0.15
23,AGGTACACGTGTGTCG,-0.04
24,GGTTGCACGTGGCGCC,0.05
25,AATGGCACGTGCGAAG,0.05

row,Sequence,relative binding free energy [kcal/mol]
1,GAATGCACGTGTTGCT,0.09
2,GTTTACACGTGTTAGT,0.26
3,TGGAGCACGTGGGCCG,-0.21
4,TTATCCACGTGGGATT,0.03
5,TGGATCACGTGCGGGG,0.05
6,CAATTCACGTGTAGGT,0.26
7,TAATTCACGTGGTACG,0.24
8,ATCGGCACGTGAAGTT,0.17
9,GGGTTCACGTGGTAAA,0.28
10,CGCGGCACGTGGGTGC,-0.34
11,AATAACACGTGTGTGG,-0.1
12,CATTGCACGTGGGATT,-0.08
13,TACTGCACGTGTGGAG,0.07
14,GTCTGCACGTGTATGG,0.18
15,CAGTGCACGTGTTATG,0.08
16,GTTGTCACGTGAGTCA,0.29
17,AGGATCACGTGGGGCG,0.03
18,ATGGTCACGTGTTCAG,0.11
19,TATTGCACGTGGCCTT,0
20,TATTTCACGTGGCTTG,0.24
21,GGTATCACGTGGGGGA,0.13
22,TGTGCCACGTGGCTGT,-0.11
23,GTTTGCACGTGATTGA,0.19
24,AAAGGCACGTGGTAGG,-0.21
25,TTTTGCACGTGCAATG,-0.01

row,Sequence,relative binding free energy [kcal/mol]
1,TCACGCACGTGGGTGA,-0.21
2,TGTTCCACGTGTGTGA,0
3,CTCAGCACGTGGGGGG,-0.28
4,AATATCACGTGGTTAG,-0.04
5,GCTTACACGTGAATGG,0.29
6,TAATTCACGTGGTGCA,0.16
7,ATAGTCACGTGATTGC,0.13
8,TTCTACACGTGTGGCT,0.12
9,GGGGCCACGTGGGCTC,-0.01
10,GCTGTCACGTGGTATA,0
11,TGAAGCACGTGGGCGT,-0.23
12,ACCTTCACGTGTTGGT,0.21
13,AAATGCACGTGTATGG,-0.11
14,TGTTGCACGTGTATTT,0.04
15,GGCTGCACGTGAATTT,0.28
16,GGGTCCACGTGTCGTT,0.11
17,TAGTACACGTGTAGCT,0.22
18,TACGGCACGTGTATTG,-0.15
19,TGCGGCACGTGGGGAA,-0.26
20,TGGTTCACGTGCCAGG,0.14
21,ATTCTCACGTGAGGGA,0.32
22,GCTGGCACGTGTATGA,0.03
23,TGGTTCACGTGGAATA,0.24
24,TTTAACACGTGGGTGA,-0.1
25,TGAGGCACGTGATTTC,-0.02

row,Sequence,relative binding free energy [kcal/mol]
1,GCACGCACGTGGTGTG,-0.23
2,TAAGGCACGTGTAGGA,-0.05
3,TTTGTCACGTGGAATG,0.21
4,TGCTTCACGTGCGCGG,0.26
5,TGGGACACGTGCGGGT,0.05
6,TGCTGCACGTGGATAG,-0.13
7,GGGTGCACGTGTTCTT,0.02
8,CACGTCACGTGAGTGG,0.31
9,GATGTCACGTGGTGAG,0.1
10,GATAGCACGTGGTGCA,0.11
11,TGTGGCACGTGTCCCG,-0.07
12,TGGAGCACGTGCCGGG,-0.25
13,AGTTGCACGTGCAGGG,-0.01
14,GTGTGCACGTGATACG,0.07
15,CGATGCACGTGATAGG,0.07
16,GAGGACACGTGAGCGT,0.33
17,TGATTCACGTGGTAAG,0.17
18,TATCACACGTGTGGGT,0.12
19,TCTTGCACGTGGGATG,-0.17
20,ATACACACGTGTTTTT,0.01
21,GGGCTCACGTGTTGGC,0.28
22,GAGTTCACGTGTTTTT,0.43
23,GTTGGCACGTGCATGA,-0.15
24,GTTGTCACGTGATCTT,0.28
25,GTAATCACGTGCTTTT,0.19

row,Sequence,relative binding free energy [kcal/mol]
1,TTGAACACGTGTTATT,0.06
2,TTATGCACGTGGCGTG,-0.13
3,TTACTCACGTGGGTGT,0.14
4,TGGGGCACGTGTCGTG,-0.1
5,TCTGACACGTGGGTGG,-0.03
6,GGGGACACGTGGGAGT,-0.09
7,GTTTCCACGTGTAGCG,0.29
8,TGGTGCACGTGTGCTC,0.01
9,TTAGGCACGTGGCGGA,-0.22
10,GCAGGCACGTGGCGGT,-0.09
11,GGTGTCACGTGCCGTG,0.03
12,TTCTACACGTGTGTGA,0.19
13,GGCGGCACGTGGGTGC,-0.24
14,TTAGGCACGTGCGATG,-0.19
15,TGATTCACGTGGAGAT,0.26
16,CGTTCCACGTGGTATT,0.19
17,GTGTGCACGTGTATAT,0.12
18,GATGACACGTGGTGTT,0.07
19,GATGTCACGTGCTTGG,0.11
20,TAGGTCACGTGGTAGT,0.06
21,GCTGTCACGTGTCGGT,0.21
22,TTCTCCACGTGTTTAT,0.14
23,GGGTCCACGTGGTTGC,0.08
24,GTAGTCACGTGAGTTG,0.26
25,TCTAGCACGTGTAAGG,-0.12

row,Sequence,relative binding free energy [kcal/mol]
1,AAATCCACGTGTGTTG,0.1
2,CGGTTCACGTGTGACT,0.41
3,AAGGTCACGTGAAATG,0.36
4,ATTCGCACGTGGTTGG,-0.15
5,TTTCGCACGTGATGTG,0.09
6,TTTGGCACGTGTGCAG,-0.06
7,TATGACACGTGGGGGA,-0.07
8,GGGGGCACGTGACGCT,0
9,TGTACCACGTGTGTAT,-0.12
10,GTATTCACGTGTCAGG,0.27
11,TTTGGCACGTGTGATG,0
12,GGTTACACGTGTGCGT,0.18
13,CCTGTCACGTGGGGCG,0.03
14,CGTAACACGTGAGTTT,0.25
15,AAGTGCACGTGACTGT,0.15
16,TTTTTCACGTGTGTTG,0.3
17,AGGGTCACGTGCAAGG,0.07
18,GTTTACACGTGGGTGC,0
19,GCAGACACGTGGGGAG,-0.14
20,TTAATCACGTGTAAAT,0.38
21,CTGTTCACGTGCATGG,0.23

# — the BET-seq Pho4 binding data (Le et al. 2018)
